# Laboratory results taken from the supplement of paper PMC8728848.
# This is one part of the list.
# B1: PX9937D-bvu-500-26-500 (Bacteroides vulgatus) (protein)
# chain: DPVSDITDLNYWKTPEQFDSFVFGLHSRFRSHSWNMFLLGEARSDVFGGIPFGGEATQGMERFPYNTLNAENPGISGFGDLYQNINQMNLFISRTLHTDVLTESARNYYLGQVYGLRAYYMYQLYRSWGDVVFTEEPSLGFEVGKLAKAATPAAEIFEQVKKDIESSLSYFGSDYTIKEKKSLWSKAATLMLKADVYLWSAHRDGGEGDARTAKNALVDIQNNISRSNLDLMDTYQGVFAYDNKGNKEIIFTIHNELFEYNLWNGNNDLFPQADYLGKFYNADGTLINTSVENNFGIMRLMVKLENFKKFLPGDTRRDVTLKDVYNKVENGKLELVGVYPHKYWGVMNGSTRVRCDDYPIYRYSDLLLMLAEAKVLLGEDPATEINRVRRRAFGDAYDASTVGFPNQEVDKRPADAVLQERLFEFMLEGKRWYDLRRFGDSYVLDYTPAEPARLLWPINQGALTNNPLLKQTVGY
# Key:
# Test in all cases: glycan array binding signal (z-score within array); higher = stronger binding
# Settings in all cases: glycan notation: IUPAC condensed, linker removed
# [1] = molecular target: Gal(a1-3)Gal(b1-4)GlcNAc(b1-2)Man
# Method in brief: (§1)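 The binding signal is a Z-score computed within each array. Data were drawn from 3228 arrays in the Consortium for Functional Glycomics database, restricted to those with a known protein sequence. Scores were averaged over arrays of the same protein sequence at different concentrations or buffers, and over linkers, and negative values can be taken as non-binding.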
# [2] = molecular target: Gal(a1-3)Gal(b1-4)GlcNAc(b1-2)Man(a1-3)[Gal(a1-3)Gal(b1-4)GlcNAc(b1-2)Man(a1-6)]Man(b1-4)GlcNAc(b1-4)GlcNAc
# Method in brief: as §1
# [3] = molecular target: Gal(a1-3)Gal(b1-4)GlcNAc(b1-3)GalNAc
# Method in brief: as §1
# [4] = molecular target: Gal(a1-3)Gal(b1-4)GlcNAc(b1-6)GalNAc
# Method in brief: as §1
# [5] = molecular target: Gal(a1-3)Gal(b1-4)[Fuc(a1-3)]GlcNAc
# Method in brief: as §1
# [6] = molecular target: Gal(a1-3)Gal(b1-4)[Fuc(a1-3)]GlcNAc(b1-2)Man(a1-3)[Gal(a1-3)Gal(b1-4)[Fuc(a1-3)]GlcNAc(b1-2)Man(a1-6)]Man(b1-4)GlcNAc(b1-4)GlcNAc
# Method in brief: as §1
# Gal(a1-3)GalNAc = molecular target: Gal(a1-3)GalNAc
# Method in brief: as §1
# [7] = molecular target: Gal(a1-3)[Gal(a1-4)]Gal(b1-4)GlcNAc
# Method in brief: as §1
# [8] = molecular target: Gal(a1-4)Gal(b1-3)GlcNAc(b1-2)Man(a1-3)[Gal(a1-4)Gal(b1-3)GlcNAc(b1-2)Man(a1-6)]Man(b1-4)GlcNAc(b1-4)GlcNAc
# Method in brief: as §1
# Gal(a1-4)Gal(b1-4)Glc = molecular target: Gal(a1-4)Gal(b1-4)Glc
# Method in brief: as §1
# Gal(a1-4)Gal(b1-4)GlcNAc = molecular target: Gal(a1-4)Gal(b1-4)GlcNAc
# Method in brief: as §1
# [9] = molecular target: Gal(a1-4)Gal(b1-4)GlcNAc(b1-2)Man(a1-3)[Gal(a1-4)Gal(b1-4)GlcNAc(b1-2)Man(a1-6)]Man(b1-4)GlcNAc(b1-4)GlcNAc
# Method in brief: as §1
# [10] = molecular target: Gal(a1-4)Gal(b1-4)GlcNAc(b1-3)Gal(b1-4)Glc
# Method in brief: as §1
# Gal(a1-4)GlcNAc = molecular target: Gal(a1-4)GlcNAc
# Method in brief: as §1
# Gal(a1-6)Glc = molecular target: Gal(a1-6)Glc
# Method in brief: as §1
# Gal(b1-2)Gal = molecular target: Gal(b1-2)Gal
# Method in brief: as §1
# Gal(b1-3)Gal = molecular target: Gal(b1-3)Gal
# Method in brief: as §1
# Gal(b1-3)Gal(b1-4)GlcNAc = molecular target: Gal(b1-3)Gal(b1-4)GlcNAc
# Method in brief: as §1
# Gal(b1-3)GalNAc = molecular target: Gal(b1-3)GalNAc
# Method in brief: as §1
# [11] = molecular target: Gal(b1-3)GalNAc(a1-3)[Fuc(a1-2)]Gal(b1-4)Glc
# Method in brief: as §1
# [12] = molecular target: Gal(b1-3)GalNAc(a1-3)[Fuc(a1-2)]Gal(b1-4)GlcNAc
# Method in brief: as §1
# Gal(b1-3)GalNAc(b1-3)Gal = molecular target: Gal(b1-3)GalNAc(b1-3)Gal
# Method in brief: as §1
# [13] = molecular target: Gal(b1-3)GalNAc(b1-3)Gal(a1-4)Gal(b1-4)Glc
# Method in brief: as §1
# [14] = molecular target: Gal(b1-3)GalNAc(b1-4)Gal(b1-4)Glc
# Method in brief: as §1
# [15] = molecular target: Gal(b1-3)GalNAc(b1-4)[Neu5Ac(a2-3)]Gal(b1-4)Glc
# Method in brief: as §1
# Gal(b1-3)GlcNAc = molecular target: Gal(b1-3)GlcNAc
# Method in brief: as §1
# [16] = molecular target: Gal(b1-3)GlcNAc(a1-3)Gal(b1-4)GlcNAc
# Method in brief: as §1
# [17] = molecular target: Gal(b1-3)GlcNAc(a1-6)Gal(b1-4)GlcNAc
# Method in brief: as §1
# Gal(b1-3)GlcNAc(b1-2)Man = molecular target: Gal(b1-3)GlcNAc(b1-2)Man
# Method in brief: as §1
# [18] = molecular target: Gal(b1-3)GlcNAc(b1-2)Man(a1-3)[Gal(b1-3)GlcNAc(b1-2)Man(a1-6)]Man(b1-4)GlcNAc(b1-4)GlcNAc
# Method in brief: as §1
# [19] = molecular target: Gal(b1-3)GlcNAc(b1-2)Man(a1-3)[Gal(b1-3)GlcNAc(b1-2)Man(a1-6)]Man(b1-4)GlcNAc(b1-4)[Fuc(a1-6)]GlcNAc
# Method in brief: as §1
# [20] = molecular target: Gal(b1-3)GlcNAc(b1-2)Man(a1-3)[GlcNAc(b1-4)][Gal(b1-3)GlcNAc(b1-2)Man(a1-6)]Man(b1-4)GlcNAc(b1-4)GlcNAc
# Method in brief: as §1
# [21] = molecular target: Gal(b1-3)GlcNAc(b1-2)[Gal(b1-3)GlcNAc(b1-6)]Man(a1-6)[Gal(b1-3)GlcNAc(b1-2)Man(a1-3)]Man(b1-4)GlcNAc(b1-4)GlcNAc
# Method in brief: as §1
# [22] = molecular target: Gal(b1-3)GlcNAc(b1-3)Gal(b1-3)GlcNAc
# Method in brief: as §1
# [23] = molecular target: Gal(b1-3)GlcNAc(b1-3)Gal(b1-4)Glc
# Method in brief: as §1
# [24] = molecular target: Gal(b1-3)GlcNAc(b1-3)Gal(b1-4)GlcNAc
# Method in brief: as §1
# [25] = molecular target: Gal(b1-3)GlcNAc(b1-3)Gal(b1-4)GlcNAc(b1-2)Man(a1-3)[Gal(b1-3)GlcNAc(b1-3)Gal(b1-4)GlcNAc(b1-2)Man(a1-6)]Man(b1-4)GlcNAc(b1-4)GlcNAc
# Method in brief: as §1
binder,measurement,setting,value
B1,glycan array binding signal (z-score),[1],-0.058
same,glycan array binding signal (z-score),[2],-0.145
same,glycan array binding signal (z-score),[3],-0.404
same,glycan array binding signal (z-score),[4],1.21
same,glycan array binding signal (z-score),[5],-0.427
same,glycan array binding signal (z-score),[6],0.656
same,glycan array binding signal (z-score),Gal(a1-3)GalNAc,-0.426
same,glycan array binding signal (z-score),[7],2.38
same,glycan array binding signal (z-score),[8],-0.769
same,glycan array binding signal (z-score),Gal(a1-4)Gal(b1-4)Glc,-0.13
same,glycan array binding signal (z-score),Gal(a1-4)Gal(b1-4)GlcNAc,-0.06
same,glycan array binding signal (z-score),[9],9.96
same,glycan array binding signal (z-score),[10],0.006
same,glycan array binding signal (z-score),Gal(a1-4)GlcNAc,-0.369
same,glycan array binding signal (z-score),Gal(a1-6)Glc,0.278
same,glycan array binding signal (z-score),Gal(b1-2)Gal,-0.134
same,glycan array binding signal (z-score),Gal(b1-3)Gal,0.039
same,glycan array binding signal (z-score),Gal(b1-3)Gal(b1-4)GlcNAc,-0.412
same,glycan array binding signal (z-score),Gal(b1-3)GalNAc,-0.281
same,glycan array binding signal (z-score),[11],-0.139
same,glycan array binding signal (z-score),[12],-0.372
same,glycan array binding signal (z-score),Gal(b1-3)GalNAc(b1-3)Gal,0.096
same,glycan array binding signal (z-score),[13],-0.326
same,glycan array binding signal (z-score),[14],0.127
same,glycan array binding signal (z-score),[15],0.044
same,glycan array binding signal (z-score),Gal(b1-3)GlcNAc,-0.361
same,glycan array binding signal (z-score),[16],-0.022
same,glycan array binding signal (z-score),[17],0.107
same,glycan array binding signal (z-score),Gal(b1-3)GlcNAc(b1-2)Man,-0.031
same,glycan array binding signal (z-score),[18],4.38
same,glycan array binding signal (z-score),[19],-0.142
same,glycan array binding signal (z-score),[20],0.988
same,glycan array binding signal (z-score),[21],0.146
same,glycan array binding signal (z-score),[22],-0.129
same,glycan array binding signal (z-score),[23],-0.26
same,glycan array binding signal (z-score),[24],-0.572
same,glycan array binding signal (z-score),[25],-0.187
